# Measured values published in the BET-seq Pho4 binding data (Le et al. 2018).
# The other results are listed elsewhere or left out. These are noisy estimates, calculated here from bound and input reads.
# Target: T1, Pho4 (S. cerevisiae) (UniProt P07270)
# T1 sequence: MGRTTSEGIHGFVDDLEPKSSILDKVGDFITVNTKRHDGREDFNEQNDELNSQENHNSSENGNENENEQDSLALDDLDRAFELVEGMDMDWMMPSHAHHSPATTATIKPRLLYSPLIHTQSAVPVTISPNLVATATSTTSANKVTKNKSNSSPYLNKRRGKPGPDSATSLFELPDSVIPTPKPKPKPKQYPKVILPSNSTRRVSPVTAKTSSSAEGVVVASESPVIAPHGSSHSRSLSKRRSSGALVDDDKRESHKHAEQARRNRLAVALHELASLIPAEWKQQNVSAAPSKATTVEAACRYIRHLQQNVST
# Assay: relative binding free energy (BET-seq); higher = weaker binding
# Conditions: reference: library average
row,Sequence,relative binding free energy [kcal/mol]
1,TTATGCACGTGCTTGT,-0.01
2,GTTGTCACGTGCTATG,0
3,AAGGTCACGTGGAAAT,0.21
4,TTTTGCACGTGTAGCA,0
5,CGTGCCACGTGGGAGG,-0.12
6,GGGTCCACGTGGATAT,0.1
7,GTTACCACGTGTAGGG,0.06
8,ATGTTCACGTGTAGCC,0.43
9,GGTTGCACGTGTTCAT,-0.03
10,CGATTCACGTGATTTG,0.35
11,TAAAGCACGTGCTGGT,-0.04
12,TTCTACACGTGGGTTA,-0.08
13,GAGTGCACGTGTGCAT,0
14,AGGTCCACGTGGGGGT,-0.26
15,GTTCCCACGTGTTGGG,0
16,GTGGACACGTGCTGGA,-0.05
17,GTTTTCACGTGTGGGT,0.35
18,TGTGTCACGTGGTCGA,0.06
19,CTTTGCACGTGAGGTA,0.23
20,ATTTTCACGTGATTTA,0.29
21,GTGCGCACGTGGGAAG,-0.16
22,CAGTTCACGTGTTATT,0.23
23,TGGCGCACGTGTGAAT,0.15

row,Sequence,relative binding free energy [kcal/mol]
1,GTGCGCACGTGGCGGG,-0.27
2,GTTGACACGTGGGGCA,-0.18
3,GGGCGCACGTGTATGA,0
4,GGTTTCACGTGCAGAT,0.33
5,GAAGTCACGTGTTGTT,0.21
6,ATAATCACGTGAATAG,0.46
7,TCTCTCACGTGGTGGT,0.23
8,AGCTTCACGTGGGATG,0.42
9,ATCGCCACGTGTTGGT,-0.02
10,TGGGTCACGTGAGAGG,0.25
11,CAGGGCACGTGAAAGT,0.09
12,TATAACACGTGGTATG,-0.2
13,TCTTCCACGTGGGCGG,0.04
14,GTCTTCACGTGGTAGG,0.27
15,AGTAGCACGTGAATGG,0.14
16,TGGGTCACGTGTTTAC,0.03
17,ATAGGCACGTGCTTTT,-0.06
18,TGTGTCACGTGTGCTG,0.06
19,AGGTTCACGTGTGTCA,0.29
20,TAGTGCACGTGGCGAG,-0.18
21,TGCTGCACGTGAGATT,0.29
22,GGATGCACGTGTAGAG,0.01
23,GTGTCCACGTGGGGAA,-0.13

row,Sequence,relative binding free energy [kcal/mol]
1,TGACTCACGTGGTAGT,0.08
2,TTAGTCACGTGACGTG,0.21
3,TCGGGCACGTGTTGCG,-0.23
4,TGTCACACGTGGTCGG,-0.05
5,TGATGCACGTGGGCTC,-0.1
6,TCGATCACGTGTATGG,0.19
7,TGAATCACGTGTAATT,0.18
8,GTGCTCACGTGAGATT,0.48
9,TTACACACGTGATGGT,0.12
10,ATGTTCACGTGTGCGA,0.27
11,GGGGACACGTGGTTTG,0.05
12,TGGGTCACGTGGGTGG,-0.02
13,TAAATCACGTGTGATG,0.17
14,TAGAGCACGTGGGGTC,-0.2
15,AAATTCACGTGGTGTC,0.14
16,AAGGTCACGTGGTGGA,0.07
17,TTGAGCACGTGTTGGG,0.01
18,GTGCGCACGTGAAGGG,0.3
19,TTTAACACGTGAGGTA,0.28
20,AGTAACACGTGTTAAG,0.03
21,TAGTTCACGTGGAAAT,0.24
22,GTGCTCACGTGTAGTA,0.13
23,TAGTTCACGTGTAATT,0.34

row,Sequence,relative binding free energy [kcal/mol]
1,ACGTACACGTGTGGGA,-0.01
2,TTGAACACGTGGGTCG,-0.09
3,ATTTTCACGTGGGCTT,0.15
4,AGTGTCACGTGCCGGA,-0.04
5,CGTTTCACGTGATATT,0.14
6,TGGTCCACGTGGATGT,-0.01
7,TAGTGCACGTGTAGGT,-0.05
8,TCTTTCACGTGAGAGT,0.39
9,GAATGCACGTGATGTT,0.2
10,TATGGCACGTGCGGAG,-0.16
11,TTAAACACGTGTGTGA,0.11
12,TTTGCCACGTGCGGAG,-0.05
13,TTTTTCACGTGTGTCC,0.29
14,TGAGGCACGTGAATAT,0.19
15,TGGCGCACGTGGACTG,-0.12
16,GAAGGCACGTGAAGTG,0.24
17,GGATGCACGTGATAGA,0.15
18,CTGAACACGTGCGGGG,0.08
19,TGCAGCACGTGGGAGA,-0.19
20,AATATCACGTGTTGCG,0.21
21,GCGGGCACGTGGAGCG,-0.07
22,ACGAACACGTGGGTGG,-0.16
23,GTGCTCACGTGGGGTA,0.14

row,Sequence,relative binding free energy [kcal/mol]
1,GATAGCACGTGGCTTT,-0.02
2,GGTTGCACGTGAATGG,0.41
3,TTTAGCACGTGCGTTT,-0.09
4,AGGTACACGTGAATTT,0.24
5,TTGGTCACGTGTTAGT,0.18
6,GGGAACACGTGATTTG,0.13
7,TGAGTCACGTGGTTTG,0.17
8,TTGGACACGTGCAGGA,-0.01
9,TGAAGCACGTGGGAGA,-0.14
10,TGTTTCACGTGCAGTA,0.2
11,GGCACCACGTGTGTTG,0.08
12,GGGCACACGTGGATGG,0.09
13,GGCATCACGTGTAGGT,0.29
14,TTGCGCACGTGTGTTT,-0.03
15,TATGTCACGTGATCGC,0.24
16,AGGTTCACGTGCCGTT,0.18
17,GCATGCACGTGAGGTG,0.27
18,AGGGGCACGTGGATTG,-0.21
19,TTTATCACGTGGTGAG,0.09
20,GGATGCACGTGGTATT,-0.17
21,CGCGTCACGTGTGTGG,-0.04
22,GTAGCCACGTGGTATG,-0.02
23,TTTTACACGTGTGTGT,0.19
